Results: PubChem BioAssay (Tox21)
Several values for one entry are separate records, joined by “and”; a condition that tells them apart may be missing. Identical values can stand only once. This list was built around the results that the source calls inconclusive (neither active nor inactive); the mix of calls is not that of the screen. For some of these results: Potencies of inconclusive entries are doubtful fits and often do not repeat. Some compounds were tested as several samples or in several runs, with calls that do not always agree. Activity calls are given as the source filed them. Unless noted, calls follow the shape of the dose curve; as a rule, active = well fitted curve in the direction sought with a large enough effect in the repeat runs; inconclusive = weak or mixed curves; inactive = no such curve, though single readings can be large; an effect the other way counts as inactive or inconclusive.

Experiments:
[1] = qHTS assay for identifying genotoxic compounds that show differential cytotoxicity against isogenic chicken DT40 cell lines with known DNA damage response pathways - wild type cell line (AID 743012); settings: DT40 wild type chicken cells viability, CellTiter-Glo, 40 h; activity change, negative = cytotoxicity: at 68.4 µM (top of the series) unless noted; also: nearly all actives have a fitted effect of over 60% in size
Outline: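 Cytotoxicity in repair-proficient parental chicken DT40 cells serves as the comparator for Rad54/Ku70- and Rev3-deficient lines. Cells were exposed to compounds for 40 h at 37 C/5% CO2, and ATP-based luminescence (CellTiter-Glo) measured viability.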

[2] = qHTS assay for identifying genotoxic compounds that show differential cytotoxicity against isogenic chicken DT40 cell lines with known DNA damage response pathways - Rev3 mutant cell line (AID 743014); settings: chicken DT40 Rev3-/- viability, CellTiter-Glo, 40 h; series mostly up to 68.4 µM; also: nearly all actives have a fitted effect of over 55% in size
[3] = qHTS assay for identifying genotoxic compounds that show differential cytotoxicity against isogenic chicken DT40 cell lines with known DNA damage response pathways - Rad54/Ku70 mutant cell line (AID 743015); settings: DT40 Rad54/Ku70 mutant viability, CellTiter-Glo, 40 h; activity change, negative = cytotoxicity: at 66.8 µM (top of the series); also: nearly all actives have a fitted effect of over 60% in size
[4] = qHTS assay to identify small molecule antagonists of the androgen receptor (AR) signaling pathway using the MDA cell line - cell viability counter screen (AID 743041; also: nearly all actives have a fitted effect of over 45% in size); settings: MDA-kb2 viability, CellTiter-Fluor, 16 h, cells co-treated with R1881 androgen agonist; series mostly up to 70.3 µM
Outline: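 Cytotoxicity counter screen: MDA-kb2 AR-luc cells, compound + R1881, 16 h, 37C, 0% CO2; CellTiter-Fluor added at 15.5 h, fluorescence read after 30 min.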

[5] = qHTS assay to identify small molecule antagonists of the thyroid receptor (TR) signaling pathway - cell viability counter screen (AID 743064); settings: GH3.TRE-Luc viability, CellTiter-Fluor, 24 h; activity change, negative = cytotoxic: at 70.3 µM (top of the series) unless noted; also: nearly all actives have a fitted effect of over 50% in size
Outline: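 Plate GH3.TRE-Luc cells; incubate 4 h at 37 °C; add compound, then T3 to 1 nM final; incubate 23.5 h; add CellTiter-Fluor; incubate 30 min at 37 °C, 5% CO2; read fluorescence.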

[6] = qHTS assay to identify small molecule antagonists of the thyroid receptor (TR) signaling pathway (AID 743065); also: nearly all actives have a fitted effect of over 55% in size
Outline: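 GH3.TRE-Luc rat pituitary cells (two TREs driving luciferase) were dosed with compound, then stimulated with 1 nM T3 (final) for 23.5 h at 37 C. ONE-Glo luminescence was the read-out, with CellTiter-Fluor fluorescence as the cytotoxicity counter-screen.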

[7] = biological target: Estrogen receptor (Homo sapiens) (UniProt P03372); assay: qHTS assay to identify small molecule agonists of the estrogen receptor alpha (ER-alpha) signaling pathway using the BG1 cell line (AID 743079); settings: BG1Luc4E2 cells, ERE-luciferase agonist, 22 h; activation: at 70.3 µM (top of the series) unless noted; also: nearly all actives have a fitted effect of over 20% in size
[8] = qHTS assay to identify small molecule antagonists of the estrogen receptor alpha (ER-alpha) signaling pathway using the BG1 cell line (AID 743080; calls by dose curve;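 also: BG1 cells stimulated with 17beta-estradiol alongside compound; nearly all actives have a fitted effect of over 25% in size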); settings: BG1Luc4E2 ERE-luciferase antagonist mode, luminescence; series mostly up to 70.3 µM
Outline: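 Quantitative HTS on the Tox21 10K library: BG1 cells with endogenous ER-alpha and ERE-luciferase reporter, 17beta-estradiol stimulation, 21.5 h compound exposure, luminescence endpoint with parallel fluorescence cytotoxicity counter-read.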

[9] = qHTS assay to identify small molecule antagonists of the estrogen receptor alpha (ER-alpha) signaling pathway using the BG1 cell line - cell viability counter screen (AID 743081);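 also: compound given together with 17beta-estradiol as the ER stimulus; nearly all actives have a fitted effect of over 45% in size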
Aromatase (Homo sapiens) = Aromatase (Homo sapiens) (UniProt P11511); assay: qHTS assay to identify aromatase inhibitors (AID 743083); also: nearly all actives have a fitted effect of over 55% in size
[10] = biological target: Androgen receptor (Homo sapiens) (UniProt P10275); assay: qHTS assay to identify small molecule agonists of the androgen receptor (AR) signaling pathway (AID 743036; active = well fitted activation curve with a large enough effect in the signal ratio in the repeat runs, with a control signal flat, not every such curve was filed as active; inconclusive = weak or mixed curves, or effect the other way; inactive = no such curve, though single readings can be large or run the other way; the % refers to the signal ratio); settings: HEK293 AR-UAS-bla GripTite, beta-lactamase FRET ratio, 16 h; activation: at 62.4 µM (top of the series) unless noted
Outline: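 Reporter line: GeneBLAzer AR-UAS-bla-GripTite (HEK293). Steps: plate cells, 4 h rest, add compounds, 16 h at 37C, add LiveBLAzer B/G substrate, 2 h at RT, read fluorescence.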

[11] = qHTS assay to identify aromatase inhibitors - cell viability counter screen (AID 743084); settings: MCF-7 aro ERE viability, CellTiter-Fluor, 24 h; activity change, negative = cytotoxicity: at 70.3 µM (top of the series);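 also: cells stimulated with testosterone during compound exposure; nearly all actives have a fitted effect of over 55% in size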

Measured: Potency
Potency is read from the fitted curve at half-maximal effect; tags tell the direction and shape of the fitted curve or compound fluorescence and quenching.

UniProt P10275, sequence (P10275 whole entry, looked up): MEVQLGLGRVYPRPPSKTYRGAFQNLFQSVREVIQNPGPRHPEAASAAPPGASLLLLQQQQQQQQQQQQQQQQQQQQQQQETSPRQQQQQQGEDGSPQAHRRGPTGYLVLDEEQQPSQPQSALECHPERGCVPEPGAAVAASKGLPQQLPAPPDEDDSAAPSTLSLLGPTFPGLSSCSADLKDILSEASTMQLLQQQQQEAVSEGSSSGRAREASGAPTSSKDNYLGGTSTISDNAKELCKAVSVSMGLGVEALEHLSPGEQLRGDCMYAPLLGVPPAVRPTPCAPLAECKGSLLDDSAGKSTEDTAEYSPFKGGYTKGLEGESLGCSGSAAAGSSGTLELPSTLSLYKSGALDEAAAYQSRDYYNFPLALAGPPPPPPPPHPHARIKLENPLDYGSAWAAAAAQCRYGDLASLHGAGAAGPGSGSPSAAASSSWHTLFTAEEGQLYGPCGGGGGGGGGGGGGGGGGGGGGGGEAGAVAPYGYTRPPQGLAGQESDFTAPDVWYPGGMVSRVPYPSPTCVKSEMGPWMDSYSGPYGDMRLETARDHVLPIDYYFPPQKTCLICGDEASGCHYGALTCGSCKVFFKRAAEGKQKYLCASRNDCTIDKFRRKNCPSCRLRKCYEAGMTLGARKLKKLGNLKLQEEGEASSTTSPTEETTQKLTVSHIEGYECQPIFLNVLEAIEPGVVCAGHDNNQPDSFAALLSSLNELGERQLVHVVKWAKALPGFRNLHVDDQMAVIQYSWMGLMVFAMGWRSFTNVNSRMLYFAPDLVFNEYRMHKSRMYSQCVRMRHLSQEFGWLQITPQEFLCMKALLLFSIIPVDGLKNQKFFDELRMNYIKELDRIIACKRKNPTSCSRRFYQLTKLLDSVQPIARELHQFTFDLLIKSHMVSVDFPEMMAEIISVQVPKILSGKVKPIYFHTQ
UniProt P03372, sequence (P03372 whole entry, looked up): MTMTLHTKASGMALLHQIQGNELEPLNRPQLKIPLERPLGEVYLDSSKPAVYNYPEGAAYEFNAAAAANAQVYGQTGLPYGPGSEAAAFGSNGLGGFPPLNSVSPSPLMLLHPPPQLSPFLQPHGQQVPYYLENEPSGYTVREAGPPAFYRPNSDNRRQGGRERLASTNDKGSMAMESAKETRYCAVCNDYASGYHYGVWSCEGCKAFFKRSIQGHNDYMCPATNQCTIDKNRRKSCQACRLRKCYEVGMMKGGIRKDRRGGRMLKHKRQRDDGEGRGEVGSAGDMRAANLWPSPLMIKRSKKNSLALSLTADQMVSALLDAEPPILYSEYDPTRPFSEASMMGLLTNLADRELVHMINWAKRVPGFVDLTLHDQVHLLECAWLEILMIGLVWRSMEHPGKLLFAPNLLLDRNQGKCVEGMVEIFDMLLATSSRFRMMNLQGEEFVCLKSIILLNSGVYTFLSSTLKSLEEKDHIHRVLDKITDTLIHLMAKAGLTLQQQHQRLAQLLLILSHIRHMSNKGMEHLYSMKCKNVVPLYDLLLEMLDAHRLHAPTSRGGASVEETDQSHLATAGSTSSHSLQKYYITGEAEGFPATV
UniProt P11511, sequence (P11511 whole entry, looked up): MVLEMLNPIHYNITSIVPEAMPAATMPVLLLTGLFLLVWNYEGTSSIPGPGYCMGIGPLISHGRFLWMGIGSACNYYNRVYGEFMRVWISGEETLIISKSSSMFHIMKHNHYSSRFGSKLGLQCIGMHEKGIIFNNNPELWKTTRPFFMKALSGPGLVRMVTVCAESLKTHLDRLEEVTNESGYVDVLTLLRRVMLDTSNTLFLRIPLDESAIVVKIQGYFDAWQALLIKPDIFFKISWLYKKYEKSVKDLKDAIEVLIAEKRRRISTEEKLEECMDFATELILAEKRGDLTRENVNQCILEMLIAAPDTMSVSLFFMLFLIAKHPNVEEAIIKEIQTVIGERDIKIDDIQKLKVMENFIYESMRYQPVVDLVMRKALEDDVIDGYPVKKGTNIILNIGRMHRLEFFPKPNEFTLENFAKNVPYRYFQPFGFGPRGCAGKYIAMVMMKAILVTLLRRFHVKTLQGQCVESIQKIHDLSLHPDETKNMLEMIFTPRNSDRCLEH

COc1cc(S(=O)(=O)O)c(C)cc1N=Nc1c(O)ccc2cc(S(=O)(=O)O)ccc12
active: [4] 24.3 µM | [5] 30.6 µM | [9] 30.6 µM
inconclusive: [1] 30.6 µM [cytotoxic, partial curve, poor fit] | [2] 54.5 µM [cytotoxic, partial curve, poor fit] | [3] 27.3 µM [cytotoxic, partial curve] | [6] 61.1 µM [inhibitor, single point] | [7] 43.3 µM [inhibitor, partial curve, poor fit] | [8] 38.6 µM [falling, partial curve] | Aromatase (Homo sapiens) 27.3 µM [inhibitor, partial curve]

C[C@H]1c2cccc(O)c2C(O)=C2C(=O)[C@]3(O)C(O)=C(C(N)=O)C(=O)[C@@H](N(C)C)[C@@H]3[C@@H](O)[C@@H]21
inactive: [8]
inconclusive: [1] 33.5 µM [cytotoxic, single point] | [2] 33.5 µM [cytotoxic, single point] | [3] 33.5 µM [cytotoxic, single point] | [10] 21.3 µM [fluorescent, partial curve] | [5] 13.3 µM [rising, single point]

CC(C)NCC(O)c1ccc(O)c(O)c1 (configuration not stated)
inconclusive: [1] 33.5 µM [cytotoxic, single point] | [2] 33.5 µM [cytotoxic, single point] and 67.8 µM [cytotoxic] | [3] 33.5 µM [cytotoxic] and 67.8 µM [cytotoxic, single point] and 68.6 µM [cytotoxic, single point] | [5] 60.4 µM [rising, partial curve] | [9] 67.8 µM [cytotoxic, partial curve, poor fit] | [11] 24.3 µM [cytotoxic, partial curve, poor fit]
